The values below come from ChEMBL document CHEMBL4888484, “Replenishing the malaria drug discovery pipeline: Screening and hit evaluation of the MMV Hit Generation Library 1 (HGL1) against asexual blood stage Plasmodium falciparum ,using a nano luciferase reporter read-out” (2022).

The campaign covered roughly 150,000 compounds. About 540 (0.36%) showed an effect of 50% or more. This is one part of the list.

This experiment has as its system Plasmodium falciparum. As to the kind of experiment: Primary screen in NF54 nanoGlo assay, in single point, at 2uM, 72h; a lower Z score goes with more inhibition. It is filed as functional, Erythrocyte. The conditions noted are these: timepoint 72 hour.
In the case of `CNC(=NCCc1cccc(OC)n1)NCc1ccco1`, the % Inhibition – broadly, the drop in the measured response relative to a control, in per cent – is reported as -15% and the Z score is 1.62.
In the case of `COc1ccc(N2CCOCC2)c(NC(=O)c2ccc(-c3cccc(Cl)c3)o2)c1`, the “% Inhibition” value was found to be 0% and the Z score came to 0.03.
Consider `O=C(Nc1ccon1)c1ccc(Oc2nccs2)cc1`, for which the “% Inhibition” value was -19% and the Z score is 3.52.
On the same counts, the results for `O=C(Nc1nc(C(=O)NCCN2CCOCC2)cs1)c1cc(F)cc(F)c1` are 3% and -0.39.
As to `Cc1nsc(NC(=O)[C@]2(C)CCCO2)c1C#N`, the “% Inhibition” value was found to be 24% and the Z score was -2.78.
Consider `COc1ccc(-n2nc(C)c3sc(N4CCCN(C(=O)c5ccc6c(c5)OCO6)CC4)nc32)cc1`, for which the “% Inhibition” value was -5% and the Z score is reported as 0.6.
On to `Cc1ccc(NS(=O)(=O)c2cc(-c3nnc(C(=O)N4CCCCC4)o3)sc2C)c(Cl)c1`, for which the “% Inhibition” value is recorded as -7% and the Z score is 0.98.
Take `CN(CCO)CC1c2ccccc2C(CN(C)CCO)c2ccccc21` (configuration not stated): the “% Inhibition” value is 1% and the Z score was -0.14.
Turning to `CC1(C)CCC(CC(=O)NCCOC(N)=O)CC1`, the “% Inhibition” value is given as -11% and the Z score is recorded as 1.28.
In the case of `Cc1nn2c(nc1=O)-c1ccccc1N[C@@H]2c1ccc(C(=O)O)cc1`, the “% Inhibition” value worked out at 9% and the Z score is listed as -1.54.
With `COc1ccc(S(=O)(=O)N2CCOCC2)cc1N(C)S(C)(=O)=O`, the “% Inhibition” value is recorded as 5% and the Z score is recorded as -0.68.
As to `COC[C@@H]1C[C@H](OC)CN1S(=O)(=O)c1cnn(C)c1`, the “% Inhibition” value was -5% and the Z score stood at 0.71.
For the molecule `CC1(NC(=O)CC2CC3CCC2C3)CCS(=O)(=O)C1` (configuration not stated), the “% Inhibition” value was -2% and the Z score is reported as 0.38.
In the case of `Cc1cccc(Cl)c1S(=O)(=O)N1CC(S(C)(=O)=O)C1`, the “% Inhibition” value is -7% and the Z score amounted to 1.06.
In the case of `NC1CCOC(C2CCCCN2S(=O)(=O)c2ccc(C(F)(F)F)s2)C1` (configuration not stated), the “% Inhibition” value is listed as 4% and the Z score is -0.63.
Turning to `CC(C)(C)OC(=O)N1CCC[C@@H]1CNC(=O)Nc1ccccn1`, the “% Inhibition” value is reported as -13% and the Z score came out at 1.66.
`Cc1nc(C(=O)OCCOC(C)C)cs1`: the “% Inhibition” value was -11% and the Z score came out at 1.33.
On the same counts, the results for `C=CCCC(=O)NC[C@](C)(O)c1cc2ccccc2o1` are -13% and 2.64.
In the case of `CCN(C)c1ccccc1CNC(=O)N1CCC2(CC1)OCC(=O)N2C`, the “% Inhibition” value is listed as -10% and the Z score is recorded as 1.72.
As to `CCS(=O)(=O)C[C@H](C)NC(=O)c1cc(C)nc(NC)n1`, the “% Inhibition” value was 4% and the Z score was -0.71.
As for `OCCN1CCN(c2nc(-c3c[nH]c4ccccc34)nc3c2CNC3)CC1`, the “% Inhibition” value is reported as -8% and the Z score is listed as 0.97.
Take `O=S(=O)(c1cccc(Cl)c1)N1CCc2nc(N3CCc4ccccc4C3)nc(N3CCOCC3)c2C1`: the “% Inhibition” value stood at 1% and the Z score is reported as -0.11.
With `CCc1ccccc1NC(=O)CN1CCN(C(=O)C2CC3C=CC2C3)CC1` (configuration not stated), the “% Inhibition” value is -10% and the Z score is listed as 1.4.
On the same counts, the results for `CN(C)C(=O)NCc1cc2n(n1)CCCN(Cc1nc3ccccc3n1C)C2` are -3% and 0.33.
For `CC(C)c1cc(CN2CCC3(CC2)CN(CCOc2ccccc2)C(=O)O3)on1`, the “% Inhibition” value was -3% and the Z score stood at 0.7.
As to `Cc1cc(NC(=O)CCc2nc(-c3ccc4cc[nH]c4c3)no2)nn1C`, the “% Inhibition” value is 6% and the Z score is recorded as -0.99.
Taken in the same sequence, the figures for `c1cc(CN2CCCCC2)cc(-c2noc([C@@H]3C[C@H]3c3cccnc3)n2)c1` were -15% and 2.09.
Taken in the same sequence, the figures for `CN1CCO[C@H](c2nc(-c3sc4ccccc4c3Cl)no2)C1` were -13% and 1.15.
In the case of `N#Cc1cc(CNC2CCCC2C#N)ccc1F` (configuration not stated), the “% Inhibition” value is recorded as -42% and the Z score is listed as 4.87.
`Cc1oc(-c2ccccc2)nc1Cn1cc(Br)c(C(C)C)n1`: the “% Inhibition” value is 4% and the Z score is -0.38.
For the molecule `Nc1c[nH]cc(Br)c1=S`, the “% Inhibition” value is recorded as -5% and the Z score came out at 1.03.
Consider `COc1ccc(C(=O)c2c(N)nc3n2CCCC3)cc1OC`, for which the “% Inhibition” value was -5% and the Z score is reported as 0.53.
Taken in the same sequence, the figures for `O=C(c1cc[nH]n1)N1CCCC1CC(O)c1ccccc1` (configuration not stated) were -4% and 0.63.
Take `Cc1nc(-c2ccc(N3CCN(C(=O)c4ccno4)CC3)nc2)no1`: the “% Inhibition” value was -1% and the Z score stood at 0.1.
As for `Cc1c(-c2ccc(Cl)cc2Cl)nc2ccccc2c1C(=O)Nc1c(C)n(C)n(-c2ccccc2)c1=O`, the “% Inhibition” value is recorded as 0% and the Z score was -0.03.
In the case of `Clc1cccc(-c2nc(N3CCN(c4ccccn4)CC3)nc3c2COc2ccccc2-3)c1`, the “% Inhibition” value is given as -9% and the Z score was found to be 1.32.
Consider `CCCc1cnc(N(C)C[C@H]2CCCO2)nc1`, for which the “% Inhibition” value is -4% and the Z score came to 0.4.
On to `CCN(CC(=O)O)C(=O)[C@@H](C)Cc1ccccc1`, for which the “% Inhibition” value is on record as 4% and the Z score was -0.5.
As to `C[C@@](CO)(Cn1cnc2ccccc21)NC(=O)Cc1ccco1`, the “% Inhibition” value is on record as 6% and the Z score was -0.8.
Taken in the same sequence, the figures for `C[C@@H](Cc1ccc2c(c1)CCO2)NC(=O)c1cn(C)nn1` were 1% and -0.09.
As to `Cn1cccc1C(=O)C(=O)N1C[C@@H]2CC[C@H]1CN(C(=O)c1cnccn1)C2`, the “% Inhibition” value is recorded as -13% and the Z score is listed as 1.68.
For the molecule `O=C(NCCCc1nnc2ccccn12)Nc1cccc(N2CCCC2=O)c1`, the “% Inhibition” value was found to be 8% and the Z score is -1.06.
As for `N#Cc1cc(O)c(-c2c(O)n[nH]c2-c2ccccc2)cc1C#N`, the “% Inhibition” value is on record as 33% and the Z score is recorded as -0.41.
Take `Cc1c(C(=O)NC[C@H]2CCCN(Cc3ccco3)C2)n(C)c2ccc(F)cc12`: the “% Inhibition” value is on record as -14% and the Z score was 1.8.
On to `CNc1snc(C)c1C(=O)Nc1ccc2c(c1)OCCCO2`, for which the “% Inhibition” value is reported as -2% and the Z score is recorded as 0.32.
As to `Cc1ccc2ncccc2c1CNS(=O)(=O)N(C)C(C)C`, the “% Inhibition” value is -24% and the Z score was 2.31.
Consider `O=C(c1cnc(C2CC2)[nH]c1=O)N1CC(Oc2ccccc2F)C1`, for which the “% Inhibition” value is -3% and the Z score was 0.35.
Consider `Cc1noc(OCC(=O)c2c[nH]c3ccccc23)n1`, for which the “% Inhibition” value is recorded as -3% and the Z score amounted to 0.44.
Regarding `C=CCNC(=O)C(=O)Nc1c(F)c(F)c(F)c(F)c1F`, the “% Inhibition” value is -11% and the Z score is 1.37.
Taken in the same sequence, the figures for `CCCc1nnc(-c2cccnc2N2CCN(C(=O)c3ccccc3)CC2)o1` were -5% and 0.52.
Taken in the same sequence, the figures for `Cc1ccc(-n2cnnc2CNC(=O)c2ccnc(OCC3CCOCC3)c2)cc1` were -6% and 1.06.
As to `CCc1nnc2n1C[C@@H](CNc1nnc(C)c(C)c1C#N)CC2`, the “% Inhibition” value is reported as -8% and the Z score is 1.61.
For `CN(C)C[C@H]1CN(Cc2cc(-c3ccccc3)no2)CCO1`, the “% Inhibition” value was -10% and the Z score turned out to be 1.05.
On to `CC1CCCCC1(NC(=O)OC(C)(C)C)C(=O)NCCN1CCOCC1` (configuration not stated), for which the “% Inhibition” value is on record as -7% and the Z score amounted to 1.06.
For `Cc1cc(C)c(S(=O)(=O)Cc2ccccc2)c(O)n1`, the “% Inhibition” value is reported as 32% and the Z score was -0.52.
On the same counts, the results for `Cc1nc(CCNC(=O)c2ccc(Cl)o2)cs1` are -16% and 1.63.
Regarding `COc1ccccc1N(Cc1ccccc1)C1=NC(=[N+](Cc2ccccc2)c2ccccc2OC)c2ccccc21`, the “% Inhibition” value turned out to be 73% and the Z score is given as -6.15.
Turning to `C1CCC2(CC1)OC[C@H](CN1CCOCC1)O2`, the “% Inhibition” value is -14% and the Z score is on record as 2.59.
Take `COc1ccccc1OCC(=O)Nc1ccc2c(c1)C(=O)Nc1cc(C)ccc1O2`: the “% Inhibition” value was 24% and the Z score is listed as -2.77.
Take `Cc1nc2ccccc2cc1OCc1ccc(F)cc1`: the “% Inhibition” value was 34% and the Z score is -1.18.
Taken in the same sequence, the figures for `O=C(NS(=O)(=O)Oc1ccccc1)OC[C@@H]1CCCN2CCCCC12` (some centres not stated) were -5% and 0.59.
As to `CCC1CN(C(=O)NC(C)c2noc(-c3ccccc3)n2)CC(C)O1` (configuration not stated), the “% Inhibition” value was -11% and the Z score was 1.
`CC(C)[C@@H]1N[C@@]2(C(=O)Nc3ccccc32)[C@@H]2C(=O)N(c3ccc(Br)cc3)C(=O)[C@@H]21`: the “% Inhibition” value was determined as 8% and the Z score is listed as -0.81.
For `Cc1c(-c2nc3ccccc3n2C)c2ccccc2n1CC(=O)O`, the “% Inhibition” value amounted to 6% and the Z score is -0.93.
As to `Cc1ccc(Cl)cc1NC(=O)N1Cc2cccn2-c2ccccc21`, the “% Inhibition” value is on record as 3% and the Z score is recorded as -0.4.
Take `Cc1nc2c(c(=O)n1C)CN(CC(=O)Nc1ccn(C)n1)C2`: the “% Inhibition” value was -8% and the Z score came out at 1.37.
Taken in the same sequence, the figures for `COCCn1cnnc1CNc1nc(C)nc(C)c1C` were -13% and 2.07.
As to `O=C(c1ccccc1)N1CCC(c2nc(C3CCOCC3)no2)CC1`, the “% Inhibition” value was -1% and the Z score is given as 0.17.
On the same counts, the results for `Cc1ccc(NC(=O)Cn2c(=O)n(CCc3cccs3)c(=O)c3ccccc32)c(C)c1` are 27% and -3.08.
Take `Cc1nn(CCO)cc1CN1CC[C@H]1c1ccc(F)cc1`: the “% Inhibition” value is -17% and the Z score was 2.2.
On the same counts, the results for `O=C(CC(=O)N1CCC(c2nccs2)CC1)NCC(F)(F)F` are 4% and -0.79.
With `Cc1ccc(-c2nc(CNC(=O)CO)[nH]c2-c2ccccn2)cc1`, the “% Inhibition” value is listed as -8% and the Z score is on record as 1.4.
For the molecule `COC(=O)CC1(CC(=O)N2CCCC3(CC3)C2)CCCC1`, the “% Inhibition” value was -16% and the Z score was found to be 2.1.
With `CCc1nc(C2CCN([C@@H](C)C(=O)N(C)Cc3cccc(F)c3)CC2)n[nH]1`, the “% Inhibition” value was -8% and the Z score worked out at 0.91.
On to `Cc1ccc([C@@H](C)CCN2CCCN(C(C)C)CC2)o1`, for which the “% Inhibition” value is 7% and the Z score is on record as -0.95.
On the same counts, the results for `COCCn1cc(C(=O)Nc2cc(C)ccc2F)c(=O)cc1C` are -23% and 2.55.
For `C#CCN(CC#CC)CC(=O)Nc1nncs1`, the “% Inhibition” value was found to be 4% and the Z score was -0.57.
Take `O=C1CN(c2ccc(C(=O)NCC3(O)CCCCC3)cc2)C(=O)N1`: the “% Inhibition” value was -19% and the Z score is given as 2.84.
`COc1cc(CNC2COCC2O)ccn1` (configuration not stated): the “% Inhibition” value is reported as -6% and the Z score is reported as 0.71.
For the molecule `COc1cccc(C(=O)N2CCCN(C(=O)c3ccc(=O)n(C)n3)CC2)c1`, the “% Inhibition” value is reported as -10% and the Z score is reported as 1.22.
`CCn1ccnc1[C@@H]1CC(=O)Nc2nc(N)ccc21`: the “% Inhibition” value is -10% and the Z score is 1.82.
Regarding `Cc1nn(C)c(C)c1CCNC1C2CCCOC2C1(C)C` (configuration not stated), the “% Inhibition” value worked out at 0% and the Z score was -0.06.
On the same counts, the results for `CCC[C@H]1CN(S(=O)(=O)c2c(C)cc(C)c3nonc23)C[C@@H]1N` are -17% and 1.54.
As for `Cc1ccsc1CNC(=O)c1cn([C@H]2CC[C@@H](N)CC2)nn1`, the “% Inhibition” value is -2% and the Z score came to 0.4.
With `CN1C[C@H](CNC(=O)c2c(F)cccc2F)C2(CCCCC2)C1`, the “% Inhibition” value stood at 5% and the Z score was -0.8.
Regarding `CCn1ccc(C(=O)N2C[C@H]3C[C@H](c4ccccc4)CC[C@@]3(C(=O)O)C2)n1`, the “% Inhibition” value stood at 1% and the Z score is given as -0.19.
